Assay results reported in publication PMC10313818.
Some entries of the source have several records that differ or are many. The list is limited to them. An entry can have further records. Some entries list several cross-links; each record is another pair of residues.

Target: GARS1 (UniProt P41250)
Assay: cross-linking mass spectrometry
Conditions: not determined

Chain of ATP5F1C (P36542 whole entry): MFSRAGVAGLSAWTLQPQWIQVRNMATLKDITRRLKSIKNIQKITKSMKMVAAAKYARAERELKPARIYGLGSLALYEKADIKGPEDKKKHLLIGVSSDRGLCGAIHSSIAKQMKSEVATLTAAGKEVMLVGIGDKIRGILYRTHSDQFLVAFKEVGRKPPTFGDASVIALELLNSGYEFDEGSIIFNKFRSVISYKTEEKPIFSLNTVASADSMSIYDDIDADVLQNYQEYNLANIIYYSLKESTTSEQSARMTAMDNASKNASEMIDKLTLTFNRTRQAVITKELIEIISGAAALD
Chain of UniProt P41250 (P41250 whole entry): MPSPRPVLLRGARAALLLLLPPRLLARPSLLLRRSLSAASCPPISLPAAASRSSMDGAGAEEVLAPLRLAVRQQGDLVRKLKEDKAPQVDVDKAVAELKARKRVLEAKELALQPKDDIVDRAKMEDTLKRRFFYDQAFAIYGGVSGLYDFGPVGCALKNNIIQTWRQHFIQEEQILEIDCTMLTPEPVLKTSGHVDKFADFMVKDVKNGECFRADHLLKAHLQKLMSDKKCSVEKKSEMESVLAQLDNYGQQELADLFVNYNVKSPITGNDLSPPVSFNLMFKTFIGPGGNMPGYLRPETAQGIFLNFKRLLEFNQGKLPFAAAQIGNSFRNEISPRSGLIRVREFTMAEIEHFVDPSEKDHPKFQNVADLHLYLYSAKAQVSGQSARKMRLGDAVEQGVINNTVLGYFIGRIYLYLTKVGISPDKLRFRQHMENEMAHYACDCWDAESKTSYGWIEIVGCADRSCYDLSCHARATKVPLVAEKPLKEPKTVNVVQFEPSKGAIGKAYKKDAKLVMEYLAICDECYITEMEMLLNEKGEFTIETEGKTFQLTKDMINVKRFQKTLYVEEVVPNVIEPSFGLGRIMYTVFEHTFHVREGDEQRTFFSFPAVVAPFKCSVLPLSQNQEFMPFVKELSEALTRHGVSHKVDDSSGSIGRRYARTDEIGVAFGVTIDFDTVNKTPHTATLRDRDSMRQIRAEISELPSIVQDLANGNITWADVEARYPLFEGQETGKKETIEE

Substance: ATP5F1C, P36542
- cross-linked residues: K49 - K484 and K49 - K487
